The campaign covered roughly 310,000 compounds. About 14,000 (4.5%) showed an effect of 50% or more. Effects have a minus sign here. Some of the results follow.
molecular target: human ether-à-go-go-related gene (hERG) potassium channel (human, UniProt Q12809); assay: primary screen, population patch clamp on CHO cells stably expressing hERG
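Also: peak tail current of the secondary pulse compared with the same well before compound.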

Chain of human ether-à-go-go-related gene (hERG) potassium channel (Q12809 whole entry, looked up): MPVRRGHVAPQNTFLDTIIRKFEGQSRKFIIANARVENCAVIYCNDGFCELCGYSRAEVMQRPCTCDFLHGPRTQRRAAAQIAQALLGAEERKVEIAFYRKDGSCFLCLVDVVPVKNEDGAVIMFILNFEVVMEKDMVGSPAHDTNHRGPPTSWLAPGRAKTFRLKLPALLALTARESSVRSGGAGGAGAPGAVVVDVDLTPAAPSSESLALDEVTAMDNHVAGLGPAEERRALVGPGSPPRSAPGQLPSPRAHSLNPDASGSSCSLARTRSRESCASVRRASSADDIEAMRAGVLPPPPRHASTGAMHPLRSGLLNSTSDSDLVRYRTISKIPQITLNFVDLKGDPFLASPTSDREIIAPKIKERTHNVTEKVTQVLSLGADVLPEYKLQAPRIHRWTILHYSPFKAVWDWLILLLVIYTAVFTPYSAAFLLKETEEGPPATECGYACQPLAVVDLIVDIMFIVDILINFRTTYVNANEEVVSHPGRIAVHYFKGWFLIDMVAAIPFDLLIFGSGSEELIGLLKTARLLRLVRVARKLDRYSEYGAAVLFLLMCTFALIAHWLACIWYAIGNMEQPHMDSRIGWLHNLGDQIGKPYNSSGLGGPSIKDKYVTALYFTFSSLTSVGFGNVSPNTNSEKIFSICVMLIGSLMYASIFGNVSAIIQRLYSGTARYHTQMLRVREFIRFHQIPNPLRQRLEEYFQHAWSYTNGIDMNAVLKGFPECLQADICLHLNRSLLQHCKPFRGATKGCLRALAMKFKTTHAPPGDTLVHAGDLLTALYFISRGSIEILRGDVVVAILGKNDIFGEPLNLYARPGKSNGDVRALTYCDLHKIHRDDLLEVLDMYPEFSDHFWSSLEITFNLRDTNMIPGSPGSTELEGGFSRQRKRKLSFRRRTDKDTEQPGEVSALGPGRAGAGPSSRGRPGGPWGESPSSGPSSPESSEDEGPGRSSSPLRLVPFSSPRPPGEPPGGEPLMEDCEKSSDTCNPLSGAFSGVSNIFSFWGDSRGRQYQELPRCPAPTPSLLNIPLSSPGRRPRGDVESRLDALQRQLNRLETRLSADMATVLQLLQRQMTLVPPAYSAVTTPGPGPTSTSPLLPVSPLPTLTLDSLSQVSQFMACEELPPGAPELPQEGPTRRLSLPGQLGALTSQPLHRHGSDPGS

SMILES | hERG current change (%, negative = inhibition) at 10uM [%]
O=C(CCc1nc2ccccc2c(=O)[nH]1)NCCN1C(=O)S/C(=C\c2ccccc2Cl)C1=O | 5.27
S=c1[nH]cc(-c2ccccc2)n1-c1ccccc1Cl | 9.61
COc1cc2c(cc1OC)C(c1ccc(N(C)C)cc1)CC(=O)N2 (stereo not shown) | -0.468
CCN(CC)S(=O)(=O)c1ccc(NC(=O)CCN2C(=O)C3CC=CCC3C2=O)cc1 (stereo not shown) | -30
Cc1nonc1NC(=O)CSc1nnnn1-c1ccccc1 | 19.6
Cc1ccc2oc(NC(=O)N3CCOCC3)cc(=O)c2c1 | 11.8
CC(C)(C)NC(=O)C(=O)NCc1ccncc1 | 11.6
CCCCCCn1c(=O)c(C(=O)Nc2c(C)n(C)n(-c3ccccc3)c2=O)c(O)c2ccccc21 | 13.6
Brc1csc(C=Nc2ccc3c(c2)OCCOCCOCCOCCO3)c1 | -73.5
CCCCCCCc1nc2nc(C)c(Br)c(=O)n2[nH]1 | 8.38
O=c1nc(N2CCOCC2)ccn1Cc1ccc(Br)cc1 | 2.48
CCCC1=C(C(=O)OCC)C(c2ccccc2OCC)NC(=O)N1C (stereo not shown) | 0.962
COc1ccc(NC(=O)NNC(=O)C(C)Oc2ccc3ccccc3c2)cc1OC (stereo not shown) | -16.2
C/C(NC(=O)c1ccccc1F)=C1\C(=O)C[C@@H]2[C@H]1C2(C)C | -14.4
Cc1cccn2c(CN3CCCC(c4ccccc4)C3)c(C(=O)N3CCOCC3)nc12 (stereo not shown) | -68.7
O=C(CN(Cc1ccc(Br)cc1)S(=O)(=O)c1ccccc1)NCC1CCCO1 (stereo not shown) | -6.72
CCCCN(C(=O)c1ccc(S(=O)(=O)N(CC)CC)cc1)c1c(N)n(CCC)c(=O)[nH]c1=O | 29.5
O=C(CC12CCC(CC1)C2)NCc1ccc2c(c1)OCO2 | 1.99
CCOc1ccc(N=C2SC(C(=O)Nc3ccccc3C#N)C(N)=C2C(=O)Nc2ccc(Cl)cc2)cc1 (stereo not shown) | 18.1
CCOC(=O)c1sc(NC(=O)CN2C(=O)NC3(CCC(C)CC3)C2=O)c(C(=O)OCC)c1C (stereo not shown) | 8.78
CC(C)NCC(O)COCCOc1ccc(C(C)(C)C)cc1.Cl (stereo not shown) | -8.61
COc1ccc(C(=O)Nc2c3c(nn2-c2ccc(Cl)cc2)CS(=O)(=O)C3)cc1 | -6.97

SMILES | hERG current change (%, negative = inhibition) at 10uM [%]
CC1CCN(c2c(NCC3CCC(C(=O)N4CCc5ccccc5C4)CC3)c(=O)c2=O)CC1 (stereo not shown) | 11.8
CN1CC(=O)N(CC(=O)N2CCC(Cc3ccccc3)CC2)C1=O | 26.1
COc1cccc(C(=O)Nc2ccc(S(=O)(=O)N3CCN(C)CC3)cc2)c1 | 6.51
COc1ccc(-c2sc3cc(OC)c(OC)cc3c2C#CC(C)(C)O)cc1 | 23.7
COc1ccccc1N1CCN(CCC(=O)Nc2ccc(F)cc2)CC1 | -19.3
CCOc1ccc2nc(N3CCCCCC3)sc2c1 | -19.2
CCOCCCNC(C(=O)Nc1ccc(OC)c(Cl)c1)c1ccccc1 (stereo not shown) | -35.1
O=C(c1ccc(S(=O)(=O)Nc2cccc(C(F)(F)F)c2)cc1)N1CCN(c2ccccc2O)CC1 | -16.5
O=C(COC(=O)c1ccc(F)cc1)NCCCc1ccccc1 | 7.48
COc1ccc(O)c(C(=O)CC(=O)c2ccc(F)cc2)c1 | -26.8
CC(C)CN(C(=O)c1cccc(S(=O)(=O)N2CCN(Cc3ccccc3)CC2)c1)C1CCS(=O)(=O)C1 (stereo not shown) | -1.5
Cc1cc(/C=C2\C(=O)NN(c3ccccc3)C2=O)c(C)n1-c1ccccc1O | 6.49
Cc1ccc(N2C(=O)N(CC(=O)NCc3ccccc3Cl)C(=O)C2C)cc1 (stereo not shown) | 8.4
CN(Cc1ccon1)Cc1cn(C)nc1-c1cccc(Cl)c1 | 12.2
Cc1cc(-c2ccc(C)c(S(=O)(=O)NCCc3ccc(S(N)(=O)=O)cc3)c2)on1 | -4.87
CCCCOC(=O)c1ccc(NC(=O)c2ocnc2C)cc1 | -8.8
COc1cc(/C=N/Nc2cccc(C)c2)ccc1OC(=O)c1ccco1 | 23.4
CN(Cc1ccccc1)Cc1nc2c(c(=O)n(C)c(=O)n2C)n1Cc1ccc(Cl)cc1 | -30.1
O=C(COc1ccc2ccc(=O)oc2c1)Nc1ccc(CN2CCOCC2)cc1 | 1.32
c1ccc(-c2nnc(N3CCOCC3)c3ccccc23)cc1 | 7.71
C[C@@H](CN1C2=NC[C@H](Cc3ccccc3)N2C[C@H]1Cc1ccc(O)cc1)NC(=O)CCC1CCCCC1 | -71.2
